In PubChem BioAssay AID686978 (National Center for Advancing Translational Sciences (NCATS), 2013):
“And” between values parts separate entries of the source, which are not always exact repeats. Equal entries are not always repeated. Screen size: about 420,000 compounds; about 64,000 (15%) were called active. The inconclusive results got no clear call from the source; some entries with a clear call stand among them for comparison. The call rests on the fitted dose curve; in most records, active means well fitted inhibition curve with a large enough effect; inconclusive means small, poorly fitted or top-dose-only effect; inactive means flat fitted curve, though single readings scatter. Potencies beside an inconclusive call are fits to weak or partial responses and may not hold up.

experiment: qHTS for Inhibitors of human tyrosyl-DNA phosphodiesterase 1 (TDP1): qHTS in cells in absence of CPT; conditions: DT40 Tdp1-/- hTDP1 cells, no CPT, ATP luminescence, 48 h; activity change, negative = growth inhibition: at 46.2 µM (top of the series) unless noted; further: nearly all actives have a fitted effect of over 55% in size
Procedure, shortened: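 Compound effects on proliferation are scored in DT40 Tdp1-/-;hTDP1 cells in the absence of CPT. ATP levels (CellTiter-Glo luminescence) are recorded after a ≥48 hr, 37 °C incubation.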
On the % scale 0 is the no-effect control and ±100 the full control effect; potency means the concentration at half of the fitted maximal effect; tags describe the fitted curve by direction and shape.

Row | Compound | Potency | activity change, negative = growth inhibition
1 | O=C1NC[C@H](CCCCN2C[C@@H](Cc3ccccc3)N(CC3CCCCC3)C(=O)C2=O)N(CCC2CCCCC2)C1=O | active: 13 µM | –
2 | COc1cc(/C=C/[N+](=O)[O-])ccc1O | active: 9.2 µM | –
3 | COc1ccc(OC)c2c1CCC1NCCOC21 (stereo unspecified) | – | inactive: -8.22%
4 | COc1ccc([N+](=O)[O-])cc1NC(=O)COC(=O)c1ccccc1C(=O)c1ccccc1 | inconclusive: 25.9 µM [inhibitor, single point] | –
5 | CC1(CCl)CN1S(=O)(=O)c1ccccc1 (stereo unspecified) | inconclusive: 29.1 µM [inhibitor, single point] | –
6 | O=c1c2ccccc2nc(-c2ccccc2)n1-n1cccc1 | inconclusive: 6.51 µM [inhibitor, full curve, poor fit] | –
7 | CCOC(=O)[C@H](CCc1ccccc1)N[C@@H](C)C(=O)N(CC(=O)O)C1Cc2ccccc2C1 | inconclusive: 21.1 µM [inhibitor, partial curve, poor fit] | –
8 | CCN1CCN(c2nc3ccccc3s2)CC1 | – | inactive: -1.95%
9 | Cn1cc(C(=O)c2ccccc2)c2ccccc21 | inconclusive: 10.3 µM [inhibitor, partial curve, poor fit] | –
10 | COc1ccc(CNC(=O)Cn2c(=O)oc3cc(S(=O)(=O)N4CCCC4)ccc32)cc1 | inconclusive: 8.2 µM [inhibitor, partial curve] and inconclusive: 18.4 µM [inhibitor, partial curve] | –
11 | Cc1ccc(/C=C2\C(=O)NC(=S)N(c3ccc(F)cc3)C2=O)o1 | active: 14.6 µM | –
12 | Cc1nc2ccccc2c(=O)n1-c1cccc([N+](=O)[O-])c1 | – | inactive: -7.05%
13 | COc1cccc(C(=O)C2CCCN(Cc3ccccn3)C2)c1 (stereo unspecified) | inconclusive: 18.4 µM [inhibitor, single point] | –
14 | CN(C)c1ccc([N+](=O)[O-])c([N+](=O)[O-])c1 | inconclusive: 13 µM [inhibitor, partial curve] | –
15 | COOCC1(C(=O)OC)C[C@H](c2ccc(OC)cc2)N(Cc2ccccc2OC)[C@@H]1c1ccccc1C (stereo partly specified) | inconclusive: 20.6 µM [inhibitor, single point] | –
16 | CC(C)=CCOc1c2occc2cc2ccc(=O)oc12 | inactive | –
17 | Cc1cccc(CCNCc2cc3ccc(C)cc3[nH]c2=O)c1 | inconclusive: 18.4 µM [inhibitor, single point] | –
18 | CCCCc1nc2ccccc2c(=O)n1-c1ccc(O)cc1 | inconclusive: 16.4 µM [inhibitor, partial curve] | –
19 | CN1C(=O)C(=Cc2ccccc2OS(=O)(=O)c2ccccc2)C(=O)N(C)C1=O | inconclusive: 29.1 µM [inhibitor, single point] | –
20 | O=C(c1cc2cc(Cl)ccc2[nH]1)N1CCC2(CC1)OCCO2 | inconclusive: 23.1 µM [inhibitor, single point] | –
21 | CCCCn1c(NC(=O)c2ccco2)c(C(=O)OCC)c2nc3ccccc3nc21 | active: 4.61 µM | –
22 | CCN1CCN(c2ccc(NC(=O)C(C)C)cc2Cl)CC1 | – | inactive: -26.4%
23 | O=C(CCc1ccccc1)N1Cc2cc(N3CCCCC3)ccc2-n2nncc2C1 | inconclusive: 25.9 µM [inhibitor, single point] | –
24 | CCOc1cc(C=C2C(=O)NC(=O)NC2=O)ccc1OS(=O)(=O)c1ccccc1 | inconclusive: 29.1 µM [inhibitor, single point] | –

Row | Compound | Potency | activity change, negative = growth inhibition
25 | COc1ccccc1OCC#CCN1CCOCC1 | inconclusive: 29.1 µM [inhibitor, single point] | –
26 | CCOc1ccc(NC(=O)c2ccc(F)c(S(=O)(=O)NCc3ccc4c(c3)OCO4)c2)cc1 | inconclusive: 29.1 µM [inhibitor, single point] | –
27 | Cc1ccccc1N1CCN(S(=O)(=O)c2nnc(NC(=O)c3ccc(Cl)cc3)s2)CC1 | inconclusive: 10.3 µM [inhibitor, single point] | –
28 | Cc1ccc(-c2nn(Cc3ccccc3)cc2C=O)cc1 | inconclusive: 7.31 µM [inhibitor, full curve, poor fit] | –
29 | Cc1[nH]n(-c2ccccc2)c(=O)c1C(c1ccc([N+](=O)[O-])cc1)c1c(C)[nH]n(-c2ccccc2)c1=O | inconclusive: 18.4 µM [inhibitor, single point] | –
30 | Cc1cccc(OP(=O)(Nc2cccnc2)Oc2cccc(C)c2)c1 | inconclusive: 25.9 µM [inhibitor, partial curve, poor fit] | –
31 | Cc1ccc(-c2cc(C(F)(F)F)n3nc(C(=O)Nc4c(C)n(C)n(-c5ccccc5)c4=O)cc3n2)cc1 | inconclusive: 29.1 µM [inhibitor, partial curve] | –
32 | O=c1[nH]c(=O)n(-c2ccccc2F)c(O)c1C=NCCC1=CCCCC1 | inconclusive: 18.4 µM [inhibitor, single point] | –
33 | Cc1cccc(N2CCc3c2nc2ccccc2c3N)c1 | inconclusive: 18.4 µM [inhibitor, single point] and inconclusive: 29.1 µM [inhibitor, single point] | –
34 | Cn1c(O)c(C=NCCCCCCCCCCC(=O)O)c(=O)n(C)c1=O | – | inactive: -28.8%
35 | O=c1c2ccccc2nc(/C=C/c2ccccc2)n1-c1ccccc1F | inconclusive: 18.4 µM [inhibitor, single point] | –
36 | COc1ccc(C(CNC(=O)Cc2ccc(Cl)c(Cl)c2)N2CCCCC2)cc1 (stereo unspecified) | inconclusive: 29.1 µM [inhibitor, single point] | –
37 | C[C@]1(O)CCC2C3CC[C@H]4C[C@@H](OC(=O)[C@@H](N)CCCCN)CC[C@]4(C)C3CC[C@@]21C (stereo partly specified) | active: 25.9 µM | –
38 | CN1C(=O)C(=Cc2sc(=O)n(-c3ccccc3)c2N(C)C)C(=O)N(C)C1=O | inconclusive: 18.4 µM [inhibitor, single point] | –
39 | COc1ccc(C=C(C#N)c2ccc(OC)cc2)cc1 | inconclusive: 25.9 µM [inhibitor, single point] | –
40 | COc1cc2c(cc1OC)-c1c(OC)c(OC)c(OC)c3ccnc(c13)C2=O | active: 3.66 µM | –
41 | Cc1ccc(OC(=O)N(C)C[C@@H]2OCc3cnnn3CCCC(=O)N([C@H](C)CO)C[C@H]2C)cc1 | – | inactive: 0.288%
42 | Cc1[nH]c2ccccc2c1CCCNC1CCCCC1 | active: 18.4 µM | –
43 | CCCCn1c(=O)c(C(=O)NCCc2ccccc2)c(O)c2ccccc21 | inconclusive: 16.4 µM [inhibitor, single point] | –
44 | CC(C)NC(=O)N1CCCC2(CCN(C(=O)Oc3ccccc3)CC2)C1 | inconclusive: 29.1 µM [inhibitor, single point] | –
45 | O=C1NC(=O)C(CCc2ccncc2)(Cc2cccc(Cl)c2Cl)C(=O)N1c1ccc(Br)cc1 (stereo unspecified) | active: 5.8 µM | –
46 | NCc1ccccc1Sc1ccccc1CO | inconclusive: 23.7 µM [inhibitor, single point] | –
47 | COc1ccc(-c2oc3cc(OC)ccc3c(=O)c2O)cc1 | active: 11.9 µM | –
48 | CCC1(C)CC(CCNCc2ccc(N(C)C)cc2)(c2ccc(F)cc2)CCO1 (stereo unspecified) | active: 16.4 µM | –

Row | Compound | Potency | activity change, negative = growth inhibition
49 | COP(N)(=O)SC (stereo unspecified) | – | inactive: -3.24%
50 | CN1CCN(c2oc(-c3ccc(COc4ccccc4)o3)nc2C#N)CC1 | inconclusive: 20.6 µM [inhibitor, single point] | –
51 | Cc1c(C(=O)NCc2cccc(C(F)(F)F)c2)sc(=O)n1Cc1ccc(C(=O)N(C)C)cc1 | active: 14.6 µM | –
52 | CC(Oc1ccc(Cl)cc1Cl)C(=O)Nc1ccc(S(=O)(=O)Nc2cnc3ccccc3n2)cc1 (stereo unspecified) | active: 25.9 µM | –
53 | COc1ccc(O)c(CN2CCCC(C(=O)c3ccccc3SC)C2)c1 (stereo unspecified) | active: 14.6 µM | –
54 | CCOC(=O)c1cc2c(cn1)[C@@H](CCO)NC2 | – | inactive: -1.74%
55 | COc1ccc(-n2nnnc2C(c2cc3ccccc3o2)N2CCC(n3c(=O)[nH]c4ccccc43)CC2)cc1 (stereo unspecified) | active: 23.1 µM | –
56 | CC1=CC(=O)C2=C(C)CC(O)C3C(C)C(=O)OC3C12 (stereo unspecified) | – | inactive: 0.726%
57 | Cc1ncoc1C(=O)NCC1=C(c2ccc(S(C)(=O)=O)cc2)C[C@@H]2CC[C@H]1N2Cc1ccco1 | – | inactive: 3.76%
58 | O=c1[nH]c(CN2CC=C(c3ccccc3)CC2)nc2cc(C(F)(F)F)ccc12 | inconclusive: 20.6 µM [inhibitor, single point] | –
59 | COc1ccc2c(c1)CC1(CN2C)C(=O)NC(=O)N(CCc2ccccc2)C1=O (stereo unspecified) | active: 5.8 µM | –
60 | Cc1ccc(C(C)C)cc1OCC(=O)Nc1nnc(C2CC2)s1 | inconclusive: 14.6 µM [inhibitor, partial curve] | –
61 | CC(=NCCN1CCCCC1)c1c(O)n(-c2ccc(Cl)cc2)c(=O)[nH]c1=O | – | inactive: -2.8%
62 | COc1ccc(C(=O)Nc2ccc3c(c2)N(C)C(=O)c2ccccc2S3)cc1OC | active: 2.59 µM | –
63 | OCCN1C2CCC1CC(O)(c1ccc(F)cc1)C2 (stereo unspecified) | – | inactive: -4.26%
64 | CC=CC(C)=CC(C)C(=O)CC(O)CC1CC(=O)NC(=O)C1 (stereo unspecified) | active: 5.8 µM | –
65 | COc1ccc(-c2nnc3sc(C4CCCCC4)nn23)cc1OC | active: 14.6 µM | –
66 | Cc1nn(C2CCOC(C)(C)C2)c2c1C(c1ccc(OC(C)C)cc1)SCC(=O)N2 (stereo unspecified) | – | inconclusive: -30.7% [inhibitor]
67 | COc1ccc(-n2nnnc2C(C2CC2)N2CCC3(CC2)C(=O)NCN3c2ccccc2)cc1 (stereo unspecified) | inconclusive: 16.4 µM [inhibitor, single point] | –
68 | COCCCN1Cc2ccccc2C1=N | – | inactive: -4.72%
69 | CCN(CC)CCO[C@H]1CC[C@@]2(C)C(=CC[C@@H]3[C@H]2CC[C@]2(C)C(=O)CC[C@H]32)C1 | active: 2.37 µM | –
70 | COc1ccc(-n2nnnc2C(CCSC)N2CCC(n3c(=O)[nH]c4ccccc43)CC2)cc1 (stereo unspecified) | active: 20.6 µM | –
71 | CCc1ccc(CNCCc2ccc(F)cc2)cc1 | inconclusive: 29.1 µM [inhibitor, single point] | –
